From PubChem BioAssay AID485281 (National Center for Advancing Translational Sciences (NCATS), 2010)
Several values for one entry are separate records, joined by “and”; a condition that tells them apart may be missing. Equal entries are not always repeated. The campaign covered roughly 350,000 compounds. About 260 (0.074%) were called active. The inconclusive results got no clear call from the source; some entries with a clear call stand among them for comparison. Calls come from the whole dose curve; as a rule, active = well fitted inhibition curve with a large enough effect; inconclusive = small, poorly fitted or top-dose-only effect; inactive = no such curve, though single readings can be large or run the other way. Where the call is inconclusive, the potency comes from a doubtful curve fit.

target: Ferritin light chain (Equus caballus) (UniProt P02791); assay: qHTS Assay for Identification of Novel General Anesthetics; conditions: apoferritin/1-aminoanthracene competitive binding, fluorescence; activity change, negative = displacement: at 77.5 µM (top of the series); note: nearly all actives have a fitted effect of over 20% in size
Procedure, shortened: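 Horse-spleen apoferritin (10 uM) in 50% saturated 1-aminoanthracene in PBS was incubated 10 min at room temperature with compound. Fluorescence (ex 380, em 535 nm) was normalized to free and bound 1-AMA, with concentration-response fitted by a four-parameter Hill equation.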
% is set by controls: 0 for no effect and ±100 for the full control effect; potency is the fitted concentration of half-maximal effect; tags give direction and shape of the fitted curve.

Sequence of UniProt P02791 (P02791 whole entry, looked up): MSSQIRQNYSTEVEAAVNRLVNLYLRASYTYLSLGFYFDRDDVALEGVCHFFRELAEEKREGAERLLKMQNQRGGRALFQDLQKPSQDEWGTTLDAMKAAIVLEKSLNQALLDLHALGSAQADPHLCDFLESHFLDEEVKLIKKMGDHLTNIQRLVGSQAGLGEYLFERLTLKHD

Structure (SMILES) | Potency | activity change, negative = displacement
Cc1nc2ccn(Cc3cccs3)c(=O)c2cc1C(=O)Nc1ccccc1 | inconclusive: 15.8 µM [inhibitor, partial curve] | –
COC(=O)C1=C[C@@H](C(=O)OC)[C@@H]2C3=C(C(=O)[C@@]2(CC(C)C)NC(=O)c2ccccc2)[C@H](C)n2c(=O)n(-c4ccccc4)c(=O)n2[C@@H]3C1 | – | inactive: -18.1%
Cc1c(C2=CCN(S(=O)(=O)c3ccc(Br)cc3)CC2)c2ccccc2n1C | – | inactive: -5.59%
CC(NCc1ccccc1)C1COc2ccccc2O1 (stereo unspecified) | – | inactive: -19.3%
COC(=O)C1=C(C)N(c2cccc(C)c2)C(=O)/C1=C\c1cccs1 | inconclusive: 11.2 µM [inhibitor, partial curve] | –
OCCc1ccc(-c2ccc(Cl)cc2)o1 | inconclusive: 39.8 µM [inhibitor, partial curve] | –
COc1ccc(NS(=O)(=O)c2ccc3[nH]c4c(c3c2)CCCC4)cc1Cl | inconclusive: 3.98 µM [inhibitor, full curve, poor fit] | –
CNS(=O)(=O)c1ccc2c(c1)oc(=O)c1cc(S(=O)(=O)NC)ccc12 | – | inactive: -7.44%
C(=C\c1ccco1)/C1=NN(c2ccccc2)C(c2ccco2)C1 (stereo unspecified) | – | inactive: 5.16%
COc1ccccc1OCC(=O)Nc1ccc(N2CCCCC2)cc1 | inconclusive: 15.8 µM [inhibitor, partial curve] | –
CCCCNC(=O)C1c2ccccc2C(=O)N(c2ccc(OC)cc2)C1c1ccc(OC)cc1 (stereo unspecified) | inconclusive: 35.5 µM [inhibitor, partial curve] | –
COc1ccc(CN2CCN(c3ncnc4sc5c(c34)CC(C)CC5)CC2)cc1F (stereo unspecified) | inconclusive: 2.51 µM [inhibitor, partial curve] | –
CC1CCCN(c2oc(-c3cccc4ccccc34)nc2C#N)C1 (stereo unspecified) | – | inactive: -3.82%
CCOc1c2ccc(C(=O)NCC34CC5CC(CC(C5)C3)C4)cc2nn1CC | inconclusive: 35.5 µM [inhibitor, partial curve] | –
CS(=O)(=O)N1CCN(c2ccccc2NC(=S)NC(=O)c2cccs2)CC1 | inconclusive: 15.8 µM [inhibitor, partial curve] | –
CN(Cc1cnccn1)C(=O)c1cc(COc2cccc(C(F)(F)F)c2)on1 | inconclusive: 44.7 µM [inhibitor, single point] | –
COc1ccccc1N1CCN(CCCNC(=O)c2cnn(-c3ccccc3)c2C2CCN(C(=O)OC(C)(C)C)CC2)CC1 | inconclusive: 20 µM [inhibitor, partial curve] | –
CC(C)CCOc1ccc(C(=O)NCC(c2ccco2)N(C)C)cc1 (stereo unspecified) | inconclusive: 44.7 µM [inhibitor, single point] | –
O=C(CCC(=O)OCC(=O)c1ccc(Br)cc1)NC1CCCCC1 | inconclusive: 14.1 µM [inhibitor, partial curve] | –
Cc1nnc(NC(=O)C(C)Sc2nnc(-c3ccco3)n2C(C)C)s1 (stereo unspecified) | inconclusive: 39.8 µM [inhibitor, partial curve] | –
COc1ccc(Nc2ccc([N+](=O)[O-])cn2)cn1 | inconclusive: 25.1 µM [inhibitor, partial curve] | –

Structure (SMILES) | Potency | activity change, negative = displacement
COc1c(C=O)c(O)cc2c1C(=O)c1ccccc1C2=O | inconclusive: 25.1 µM [inhibitor, partial curve] and inconclusive: 35.5 µM [inhibitor, single point] | –
Cc1cccc(Nc2c([N+](=O)[O-])cc(C(=O)N3CC(=O)Nc4ccccc43)cc2[N+](=O)[O-])c1 | inconclusive: 10 µM [inhibitor, partial curve] | –
C/C(=C\C(=O)O)C12CC3CC(CC(C3)C1)C2 | inconclusive: 14.1 µM [inhibitor, partial curve] | –
COc1ccc(N2CCN(c3ncnc4scc(-c5ccc(C)cc5)c34)CC2)cc1 | – | inactive: -10.6%
C=CCn1c(COc2ccc(Cl)cc2)nnc1SCC(=O)N/N=C/c1cccc(O)c1 | inconclusive: 28.2 µM [inhibitor, partial curve] | –
CCCCCCCCCCOC(=O)Cn1c(COc2ccc(Cl)cc2)[n+](C)c2ccccc21 | inconclusive: 39.8 µM [inhibitor, single point] | –
Cc1cccnc1NC(=S)Nc1ccc(Cl)c(Cl)c1 | inconclusive: 25.1 µM [inhibitor, partial curve] | –
CC(=O)Nc1ccc(NC(=O)COc2ccc([N+](=O)[O-])cc2)cc1 | – | inactive: -0.848%
CCC(C)[C@H](NC(=O)[C@@H]1Cc2ccccc2CN1)C(=O)Nc1ccc2c(c1)OCO2 (stereo partly specified) | inconclusive: 10 µM [inhibitor, partial curve] | –
CCOC(=O)C(C)Sc1nnc(NC(=O)c2ccc3c(c2)OCO3)s1 (stereo unspecified) | inconclusive: 31.6 µM [inhibitor, partial curve] | –
CCOc1ccc(C(=O)Nc2c3c(nn2C(C)(C)C)CSC3)cc1OCC | inconclusive: 31.6 µM [inhibitor, single point] | –
O=C(CC1CCCCC1)N1CCCC(c2nc(-c3ccc(S(=O)(=O)N4CCCC4)cc3)no2)C1 (stereo unspecified) | inconclusive: 2.82 µM [inhibitor, full curve] | –
CCc1ccc(N2C(=O)C3C4C=CC(CC4)C3C2=O)cc1 (stereo unspecified) | inconclusive: 12.6 µM [inhibitor, partial curve] | –
O=C(CCn1cnc2ccccc2c1=O)Nc1ccc(S(=O)(=O)N2CCCC2)cc1 | inconclusive: 14.1 µM [inhibitor, partial curve] | –
Cc1cc(C)cc(-n2nc(C)cc2N)c1 | inconclusive: 28.2 µM [inhibitor, partial curve] | –
Cc1cc(NC(=O)CC(C)C)c(=O)n(Cc2cccc(F)c2)c1 | inconclusive: 35.5 µM [inhibitor, partial curve] | –
O=C(CC(=O)N/N=C\c1ccccc1)NCCc1ccccc1 | inconclusive: 28.2 µM [inhibitor, single point] | –
Cc1ccc2cc3c(N)c(C(=O)Nc4c(C)[nH]c(=O)[nH]c4=O)sc3nc2c1 | – | inactive: -12.5%
CCCCSc1nsc(NC(C)=O)n1 | inconclusive: 39.8 µM [inhibitor, partial curve] | –
CCOC(=O)c1nnc(-c2cccs2)nc1Oc1ccc(Cl)cc1 | inconclusive: 56.2 µM [inhibitor, single point] | –
